Measured values published in the RNAGym collection of RNA variant scans (doi:10.7554/elife.90254).
Read counts are not given, so values of variants with three or more changes are uncertain.

B1: LINE1-mini (parent)
chain: GGCAGAGCUCAACACAGCGUGGCAAAGUGGCUGUGGCUAGACUGCC

Variants of: B1
Assay: self-cleavage, relative activity (ratio to wild type); higher = more cleavage; in vitro, sequencing; the parent is a self-cleaving ribozyme

Q: With C18U G21C A41U as the variant, how does the self-cleavage read?
A: 0.11

Q: For G2A A11C A12U C13A C15U C23A G29U C31G, which self-cleavage is on record?
A: 0.01

Q: For C10A C23U G35C G36A, which self-cleavage is on record?
A: 0.02

Q: For A11U U34A G36U, which self-cleavage is on record?
A: 0.02

Q: Which self-cleavage does the source give for G1C A12U C13G G19A C23A C46U here?
A: 0.05

Q: With A6U A14G A16G G17U as the variant, how does the self-cleavage read?
A: 0.02

Q: Which self-cleavage does the source give for C10A A14G A16G C31U A39U here?
A: 0.01

Q: For G33U U34A C46G, which self-cleavage is on record?
A: 0.02

Q: For A6U G19U C46U, which self-cleavage is on record?
A: 1.38

Q: Which self-cleavage does the source give for G1C G2U C13U G36C C46A here?
A: 0.03

Q: For C18A G27U G29U C46A, which self-cleavage is on record?
A: 0.5

Q: With C8U A16C G17A G19A G29C as the variant, how does the self-cleavage read?
A: 0.07

Q: With G2U U9G A24C G27C as the variant, how does the self-cleavage read?
A: 0.02

Q: With G2A A16U G22A C42G C46A as the variant, how does the self-cleavage read?
A: 0.17

Q: With G1U G5C A25G as the variant, how does the self-cleavage read?
A: 0.04

Q: With C13A G17U G22A U34G as the variant, how does the self-cleavage read?
A: 0.02

Q: Which self-cleavage does the source give for G1A G17A A26C here?
A: 0.28

Q: With G2C A14U U34C C46A as the variant, how does the self-cleavage read?
A: 0.07

Q: For G7A C10G G21A U28C, which self-cleavage is on record?
A: 0.03

Q: With G5A A26C U28G G30A as the variant, how does the self-cleavage read?
A: 0.12

Q: For G35A C37U U38C, which self-cleavage is on record?
A: 0.05

Q: With C10A G21U C23U C46A as the variant, how does the self-cleavage read?
A: 0.5

Q: For U9A U34C G35U, which self-cleavage is on record?
A: 0.03

Q: For C37U C45U C46U, which self-cleavage is on record?
A: 0.04

Q: With G1A C13U A24U U34A C37U as the variant, how does the self-cleavage read?
A: 0.09

Q: With G7C U28G G33A as the variant, how does the self-cleavage read?
A: 0.09

Q: With G1A A14C G17A as the variant, how does the self-cleavage read?
A: 0.02

Q: Which self-cleavage does the source give for C10A G17A A24G G40C here?
A: 0.02

Q: For C8G G22A A24G, which self-cleavage is on record?
A: 0.03

Q: For C3A A26U C42A, which self-cleavage is on record?
A: 0.08

Q: With C13G A26U G40U as the variant, how does the self-cleavage read?
A: 0

Q: For A6U U9G G17C A26C C45U, which self-cleavage is on record?
A: 0.02

Q: For A4C A14U G40U, which self-cleavage is on record?
A: 0.03

Q: For C23U G30U U32A G33A, which self-cleavage is on record?
A: 0.03

Q: With A6C G7U A11G C13A G27A A39G as the variant, how does the self-cleavage read?
A: 0.01

Q: With A12C G22A C23A C42U as the variant, how does the self-cleavage read?
A: 0

Q: Which self-cleavage does the source give for G19U C23G C42A here?
A: 0.02

Q: With G1C A4U A6C G22A G33A as the variant, how does the self-cleavage read?
A: 0.03

Q: Which self-cleavage does the source give for G2A A4U A14C G17A U28A here?
A: 0.17

Q: Which self-cleavage does the source give for A6U C13U G36C here?
A: 0.04

Q: With C3U A6U U9C C10A as the variant, how does the self-cleavage read?
A: 0.02

Q: With C18A U28G U32A as the variant, how does the self-cleavage read?
A: 0.03

Q: With A26C G27C G35U G36A as the variant, how does the self-cleavage read?
A: 0.1

Q: Which self-cleavage does the source give for G27U U28A G36U C42U here?
A: 0.02

Q: With C3U C23G G35U A39G as the variant, how does the self-cleavage read?
A: 0.06

Q: For G1C A11C G30C, which self-cleavage is on record?
A: 0.01

Q: For G2U A6G U9C, which self-cleavage is on record?
A: 0.01

Q: For G5C G7A G36U G40A, which self-cleavage is on record?
A: 0.34

Q: For A6U U9G A12G G22A U28A G33C, which self-cleavage is on record?
A: 0

Q: For A26C G27C C37A A41C, which self-cleavage is on record?
A: 0.01

Q: With A14U G17C G22A C42G as the variant, how does the self-cleavage read?
A: 0.01

Q: For G5U C8G G40U, which self-cleavage is on record?
A: 0.17

Q: For G19C G40A U43G, which self-cleavage is on record?
A: 0.01

Q: With G2U U34C G35U as the variant, how does the self-cleavage read?
A: 0.04

Q: For A6C C15U U38A, which self-cleavage is on record?
A: 0.21

Q: For C10A A12C G21U A24G C37A, which self-cleavage is on record?
A: 0

Q: Which self-cleavage does the source give for C13A G17C C18U U20G G29A here?
A: 0.03

Q: For G1C G7U C15U G21A U34G, which self-cleavage is on record?
A: 0.05

Q: For A6C C8A C13U, which self-cleavage is on record?
A: 0.1

Q: For G5U A24C C37U, which self-cleavage is on record?
A: 0.11

Q: Which self-cleavage does the source give for C10U U20A C37U here?
A: 0.02

Q: Which self-cleavage does the source give for C10G G21A C23G here?
A: 0.07

Q: For C10A A16C U28A C31G U34G G35U, which self-cleavage is on record?
A: 0

Q: With U9A G21A G35A as the variant, how does the self-cleavage read?
A: 0.06

Q: For C10G C15G G44A C45G, which self-cleavage is on record?
A: 0.02

Q: Which self-cleavage does the source give for C3U G5U G7A C8A C10G G27U G35C here?
A: 0.03

Q: For G5U A6U A12U G19A G22A G29U G33A C42A, which self-cleavage is on record?
A: 0.08

Q: With C10A C31A U32C A39C G44A as the variant, how does the self-cleavage read?
A: 0

Q: With G2A G21A G30U A41C as the variant, how does the self-cleavage read?
A: 0.08

Q: Which self-cleavage does the source give for G5A A11U G17A A25G here?
A: 0.05

Q: With C18A G44U C45G as the variant, how does the self-cleavage read?
A: 0.07

Q: Which self-cleavage does the source give for G21U G27U C31G G35U U38A here?
A: 0.17

Q: For G5C G21A C23G G35A, which self-cleavage is on record?
A: 0.02

Q: Which self-cleavage does the source give for G5U C13G C31U here?
A: 0.04

Q: With G21U U34C U38G as the variant, how does the self-cleavage read?
A: 0.05

Q: For C8U A25U U28G U32A A39C, which self-cleavage is on record?
A: 0.13

Q: For G36U C37U G40U, which self-cleavage is on record?
A: 0.01

Q: For U9G C18A G40C, which self-cleavage is on record?
A: 0

Q: For G2U C3A G29U C37G A41U C46U, which self-cleavage is on record?
A: 0.1

Q: Which self-cleavage does the source give for C13U A16C C18G G21U G29U G36U C45U here?
A: 0.1

Q: With G5A U9G C23A C31A as the variant, how does the self-cleavage read?
A: 0.03

Q: With G7U A26G G33A as the variant, how does the self-cleavage read?
A: 0.03

Q: For A11U G17U C23A, which self-cleavage is on record?
A: 0.18

Q: For U9C U28G G33U, which self-cleavage is on record?
A: 0.01
